The shares of active, inactive and inconclusive entries below differ from those in the screen. Potencies beside an inconclusive call are fits to weak or partial responses and may not hold up. The source made the active and inactive calls. The call rests on the fitted dose curve; in most records, active means well fitted inhibition curve with a large enough effect; inconclusive means small, poorly fitted or top-dose-only effect, or effect the other way, or another doubt; inactive means no such curve, though single readings can be large or run the other way.
test: Confirmation Concentration-Response Assay for lipid storage modulators; settings: Drosophila S3 cells, lipid droplet BODIPY/CellTracker ratio, 18-24 h; activity change, negative = inhibition: at 46.1 µM (top of the series); further: nearly all actives have a fitted effect of over 80% in size;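 on activity change, negative = inhibition: -100% = full block of lipid deposition by 20 µM Triacsin C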
Outline: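 Cells at 5,000/well received compound as a titration plus oleic acid (added as 400 uM solution) and were incubated 18–24 h at 24 °C. BODIPY 493/503 lipid signal and CellTracker Red cell count were read by 488-nm laser-scanning cytometry. Activity was normalised to 20 uM Triacsin C.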
Potency means the concentration at half of the fitted maximal effect; tags describe the fitted curve by direction and shape.

Q: For `CCOc1ccc(CCNC(=O)COC(=O)c2cccs2)cc1OCC`, which Potency is on record?
A: active: 3.15 µM

Q: With `Cc1cnc(C(=O)NC(Cc2ccccc2)c2ccccc2)cn1` (stereo unspecified) as the molecule, how does the Potency read?
A: inconclusive: 14.1 µM [activator, partial curve, poor fit]

Q: For `COc1ccc(CCNC(=O)/C=C/c2ccc(C)cc2)cc1OC`, which Potency is on record?
A: inconclusive: 15.8 µM [falling, partial curve, poor fit]

Q: Which Potency does the source give for `COc1ccc2nc(NC(=O)C3CC(=O)N(c4ccccc4)C3)sc2c1` (stereo unspecified) here?
A: inconclusive: 8.88 µM [activator, full curve, poor fit]

Q: For `Cc1ccc(Nc2ncnc3nc[nH]c23)cc1Cl`, which Potency is on record?
A: inconclusive: 2.5 µM [activator, partial curve]

Q: Which Potency does the source give for `CC(C)CNS(=O)(=O)c1cc(C(=O)OCC(=O)N2CCOCC2)c(Cl)cc1Cl` here?
A: inconclusive: 3.53 µM [activator, full curve, poor fit]

Q: With `COc1ccc(CCNC(=O)C2CCCN(c3nn4c(=O)cc(C)nc4s3)C2)cc1OC` (stereo unspecified) as the molecule, how does the Potency read?
A: inconclusive: 4.45 µM [activator, partial curve, poor fit]

Q: Which Potency does the source give for `S=C(Nc1ccc(Oc2ccccc2)cc1)N1CCN(c2ccccn2)CC1` here?
A: inconclusive: 2.23 µM [activator, full curve]

Q: Which Potency does the source give for `CCOc1ccc(CCNC(=O)c2cc(S(=O)(=O)N3CCOCC3)ccc2C)cc1OCC` here?
A: inconclusive: 12.5 µM [activator, partial curve]

Q: Which Potency does the source give for `Cc1cc2nc(C(F)(F)F)cc(-c3cccs3)n2n1` here?
A: inconclusive: 11.2 µM [activator, partial curve]

Q: With `COc1ccc2oc(C(=O)OCC(=O)NCCc3ccc(S(N)(=O)=O)cc3)c(C)c2c1` as the molecule, how does the Potency read?
A: active: 4.99 µM

Q: For `COc1ccc(CCNC(=O)Cc2ccc([N+](=O)[O-])cc2)cc1OC`, which activity change, negative = inhibition is on record?
A: inconclusive: 43.3% [activator]

Q: With `COc1ccc(CCNC(=O)c2ccccc2-c2ccccc2C(=O)O)cc1OC` as the molecule, how does the “activity change, negative = inhibition” value read?
A: inactive: 17.3%

Q: For `CCCCCCCCCC[n+]1cccc2c3ccccc3ccc21`, which Potency is on record?
A: active: 1.77 µM

Q: For `COc1ccc(CCNC(=O)c2noc(C(C)C)c2[N+](=O)[O-])cc1OC`, which “activity change, negative = inhibition” value is on record?
A: inactive: 14.7%

Q: With `COc1ccc(CCNC(=O)CCc2ccc(S(=O)(=O)NC(C)C)cc2)cc1OC` as the molecule, how does the “activity change, negative = inhibition” value read?
A: inactive: 26%

Q: Which Potency does the source give for `CCOC(=O)c1cnc2c(C)cccc2c1NCCc1ccc(OC)c(OC)c1` here?
A: inconclusive: 3.53 µM [activator, full curve]

Q: With `CCCN(CC(=O)Nc1ccccc1OC)C(=O)CCNC(=O)c1ccccc1OC` as the molecule, how does the Potency read?
A: inconclusive: 4.45 µM [activator, full curve]

Q: For `Cc1ccc(S(=O)(=O)N2CCCCC2)cc1NC(=O)COC(=O)c1ccccc1F`, which Potency is on record?
A: inconclusive: 1.25 µM [activator, full curve]

Q: With `CCOC(=O)c1cc2c(ccn2C)n1CC(=O)N1C(C)CCCC1C` (stereo unspecified) as the molecule, how does the Potency read?
A: active: 11.2 µM

Q: Which Potency does the source give for `Fc1ccc2c(c1)C(c1ccc(N3CCOCC3)cc1)=NNC(c1cccs1)=N2` here?
A: inconclusive: 2.23 µM [activator, full curve, poor fit]

Q: For `O=C(Nc1ccccc1N1CCN(C(=O)c2ccc(Cl)cc2)CC1)c1ccc2c(c1)OCO2`, which Potency is on record?
A: inconclusive: 0.888 µM [activator, full curve]

Q: Which activity change, negative = inhibition does the source give for `CCOc1cc(N2CCOCC2)c(OCC)cc1NC(=O)COc1ncnc2ccccc12` here?
A: inconclusive: 11.7% [activator]

Q: With `Cc1cccc(-c2noc(CN(C)S(=O)(=O)c3cc(Cl)ccc3Cl)n2)c1` as the molecule, how does the Potency read?
A: inconclusive: 3.97 µM [activator, partial curve]

Q: Which activity change, negative = inhibition does the source give for `O=c1c2cc(Cl)ccc2oc2nc3n(c(=O)c12)CCCS3` here?
A: inconclusive: 199% [activator]

Q: With `Cc1sc2ncnc(NCC3COc4ccccc4O3)c2c1C` (stereo unspecified) as the molecule, how does the Potency read?
A: active: 1.99 µM

Q: With `CCOc1ccc(CCNC(=O)CSc2cc(=O)n(C)c3cc(Cl)ccc23)cc1OCC` as the molecule, how does the Potency read?
A: inconclusive: 0.628 µM [activator, partial curve, poor fit]

Q: Which Potency does the source give for `CCc1cccc2cc3c(N)c(C(=O)Nc4ccc(S(=O)(=O)N5CCCC5)cc4)sc3nc12` here?
A: active: 9.96 µM

Q: For `Cc1ccc(-c2nc3cc(N)ccc3o2)cc1`, which Potency is on record?
A: inconclusive: 7.91 µM [activator, partial curve, poor fit]

Q: Which Potency does the source give for `CCCN1Cc2cccc(C(=O)NCc3ccc4c(c3)OCO4)c2C1=O` here?
A: inconclusive: 0.141 µM [activator, full curve]

Q: For `O=C(c1cc2nc(-c3ccco3)cc(C(F)(F)F)n2n1)N1CCc2ccccc2C1`, which Potency is on record?
A: inconclusive: 0.705 µM [activator, full curve]
